# Measurements: publication PMC4336329 (PLoS ONE, 2015)
# Screen size: about 310,000 compounds; about 14,000 (4.5%) showed an effect of 50% or more. The effect is printed as a negative number. The list shows a part of the results.
# Biological target: human ether-à-go-go-related gene (hERG) potassium channel (human, UniProt Q12809)
# Assay: primary screen, population patch clamp on CHO cells stably expressing hERG
# 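Note: peak tail current of the secondary pulse compared with the same well before compound.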
# Sequence of human ether-à-go-go-related gene (hERG) potassium channel (Q12809 whole entry, looked up): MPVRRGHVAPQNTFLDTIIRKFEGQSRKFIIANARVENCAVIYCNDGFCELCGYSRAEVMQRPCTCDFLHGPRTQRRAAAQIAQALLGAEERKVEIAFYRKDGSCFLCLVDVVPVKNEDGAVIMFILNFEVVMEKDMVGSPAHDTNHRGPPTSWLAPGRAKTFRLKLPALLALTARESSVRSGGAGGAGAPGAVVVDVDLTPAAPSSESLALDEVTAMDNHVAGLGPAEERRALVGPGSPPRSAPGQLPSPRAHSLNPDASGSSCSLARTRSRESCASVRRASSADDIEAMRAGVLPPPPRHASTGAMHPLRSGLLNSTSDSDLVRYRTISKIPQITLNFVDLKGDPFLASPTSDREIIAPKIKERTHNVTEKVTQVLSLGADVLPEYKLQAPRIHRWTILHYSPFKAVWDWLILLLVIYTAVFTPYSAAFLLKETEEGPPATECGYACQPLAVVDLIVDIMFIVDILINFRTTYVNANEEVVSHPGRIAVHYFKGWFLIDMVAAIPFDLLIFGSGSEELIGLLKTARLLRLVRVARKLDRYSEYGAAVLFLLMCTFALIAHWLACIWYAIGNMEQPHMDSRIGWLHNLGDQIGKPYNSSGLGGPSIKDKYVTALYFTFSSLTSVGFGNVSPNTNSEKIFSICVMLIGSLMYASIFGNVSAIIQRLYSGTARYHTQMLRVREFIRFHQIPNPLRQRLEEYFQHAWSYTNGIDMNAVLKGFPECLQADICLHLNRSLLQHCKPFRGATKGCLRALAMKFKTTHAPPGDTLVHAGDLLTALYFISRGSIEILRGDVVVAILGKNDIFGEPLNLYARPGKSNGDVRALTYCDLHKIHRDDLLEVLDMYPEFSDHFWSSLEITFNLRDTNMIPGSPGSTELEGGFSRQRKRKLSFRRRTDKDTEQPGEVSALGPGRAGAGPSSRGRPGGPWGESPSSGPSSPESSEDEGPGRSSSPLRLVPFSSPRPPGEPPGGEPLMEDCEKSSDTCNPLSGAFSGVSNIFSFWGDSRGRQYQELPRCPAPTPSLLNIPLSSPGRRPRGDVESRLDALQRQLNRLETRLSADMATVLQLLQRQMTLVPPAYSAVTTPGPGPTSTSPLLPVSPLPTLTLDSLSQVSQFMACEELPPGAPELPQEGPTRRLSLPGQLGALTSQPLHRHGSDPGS
row,SMILES,"hERG current change (%, negative = inhibition) at 10uM"
1,Cc1ccc(-c2csc3ncnc(SCC(=O)O)c23)cc1,4.89%
2,O=C(Cc1ccsc1)Nc1ccc(Cl)cc1Cl,18.4%
3,COCCN(C(=O)CCC(=O)Nc1cc(C)on1)C(C(=O)NC(C)(C)C)c1cccc(OC)c1OC (stereo not drawn),12.1%
4,COC(=O)c1ccc(C(=O)OC)c(NC(=O)CS(=O)(=O)Cc2ccccc2)c1,-53.2%
5,Cc1ccc2occ(/C=N/NC(=O)c3ccccc3C)c(=O)c2c1,16.3%
6,N#Cc1c2c(c(NCCCN3CCOCC3)n3c1nc1ccccc13)CCC2,-48.5%
7,CCc1ccc(-c2cc(C)no2)cc1S(=O)(=O)Nc1cc(C)on1,10.3%
8,COc1cccc(-c2c(C(=O)N/N=C/c3ccoc3)nnn2-c2nonc2N)c1,-9.92%
9,COc1ccc(C(=O)N(Cc2ccccc2)c2cccc(C)c2)c(OC)c1OC,-14.5%
10,CCOC(=O)c1c(C)c(C(=O)NCc2ccccn2)c(C)n1CC,12.1%
11,CCOC1(OCC)N=C(N)C2(C#N)C(c3ccc(NC(C)=O)cc3)C12C#N (stereo not drawn),13.8%
12,CCOC(=O)N1CCN(c2nc(C(F)(F)F)nc3c(C)cc(C)cc23)CC1,-1.36%
13,COc1cc(NS(=O)(=O)c2ccc(NC(=O)COc3cccc(C)c3)cc2)nc(OC)n1,10.3%
14,Cc1ccccc1OCc1nc2ccccc2n1C,-6.4%
15,CCN(CC)C(=O)Cn1cc(C(=O)C(=O)Nc2ccc3c(c2)OCCO3)c2ccccc21,10.4%
16,COCCNC(=O)C(c1ccc(C)o1)N(C(=O)c1snc(C(N)=O)c1N)c1cc(C)cc(C)c1 (stereo not drawn),-28.5%
17,Cc1cc2c(cc1S(=O)(=O)CCC(=O)NC1CCCCC1C)OCC(=O)N2 (stereo not drawn),-53%
18,Cc1ccc(N(CC(=O)NCc2ccncc2)S(C)(=O)=O)cc1Cl,9.96%
19,O=C(CSc1nnc(-c2ccccc2O)o1)N1CCc2ccccc2C1,12.5%
20,CCOc1cc(C(=O)Nc2cc(C)ccc2C)ccc1OCC(=O)N1CCCCC1,17.1%
21,COc1ccc(/C=c2/sc3n(c2=O)NC2(c4ccccc4)N(C)C(=O)N(C)C2(c2ccccc2)N=3)cc1 (stereo not drawn),8.54%

row,SMILES,"hERG current change (%, negative = inhibition) at 10uM"
1,Cn1ccc(-c2ccccc2)n1,12.9%
2,COCCn1c(SCC(=O)Nc2cc(C)on2)nnc1-c1c[nH]c2ccccc12,-30.7%
3,CN(C)C(=O)N1CCN(c2nc(-c3ccccc3)cs2)CC1,3.19%
4,CC1(C)Cc2cccc(OCC(=O)Nc3cccnc3)c2O1,-0.463%
5,O=C(c1ccc(Cn2c(=S)[nH]c3cc4c(cc3c2=O)OCO4)cc1)N1CCN(c2ccccc2)CC1,14.1%
6,COc1ccc(C(=O)NC(=S)Nc2ccc(Cl)c(C(=O)O)c2)cc1,17.9%
7,CCC(C)(C(=O)NC1CCCC1)N(Cc1ccco1)C(=O)c1ccc2c(c1)OCO2 (stereo not drawn),1.65%
8,CC(C)(C)C(C(Oc1ccc(Cl)cc1)n1cncn1)n1nnnc1C(c1cccc(Cl)c1)N1CCCCC1 (stereo not drawn),-5.11%
9,COc1ccccc1/C=C/c1onc(C)c1S(=O)(=O)N1CCC(C(=O)NC(C)C)CC1,-7.1%
10,CC1CCCCN1C(=O)CSc1nc2ccccc2n1CC(=O)N1CCc2ccccc21 (stereo not drawn),-11.7%
11,CCOC(=O)c1sc(-c2ccccn2)nc1C,10.4%
12,Fc1ccc(OCCOCCN2CCCC2)cc1,-12.6%
13,O=C(O)/C=C/C(=O)Nc1ccc(Oc2ncnc3cc(Cl)ccc23)nc1,18.4%
14,COc1ccc(Cl)cc1S(=O)(=O)N1CCCC(C(=O)NCc2ccccn2)C1 (stereo not drawn),-15.1%
15,O=C(O)CCn1cnc2ccccc2c1=O,18.4%
16,O=C(Nc1ccccn1)C1CCN(S(=O)(=O)c2cccs2)CC1,-2.38%
17,CC(Nc1ccccc1N1CCCCC1)C(=O)N1CCc2ccccc21 (stereo not drawn),2.19%
18,c1ccc(Cn2nnc(-c3ccccc3)n2)cc1,-19.3%
19,C/C(CC(=O)Nc1cc(C)ccn1)=N\NC(=O)C(=O)NC(C)C,12.5%
20,CCCCc1ccc(NC(=S)Nc2cccnc2)cc1,-4.62%
21,CCOC(=O)c1c(C)[nH]c(C(=O)Cn2nnc(-c3ccccc3Cl)n2)c1C,11.2%

row,SMILES,"hERG current change (%, negative = inhibition) at 10uM"
1,CCn1c(NCc2cc(Br)ccc2NS(=O)(=O)c2ccc(C)cc2)nc2ccccc21,10.4%
2,Cc1ccc(C(=O)N/C(=C\c2cn(C)c3ccccc23)C(=O)NCCCN2CCOCC2)cc1,0.137%
3,Cc1cc(C(=O)OCC(=O)NC(C)C)c2ccccc2n1,-7.74%
4,COc1ccc2sc(N(CCCN(C)C)C(=O)c3ccc(S(=O)(=O)N4CCCc5ccccc54)cc3)nc2c1.Cl,-14.4%
5,CCOc1ccc(S(=O)(=O)N(C)c2ccc(OCC(=O)Nc3nc(-c4cc(OC)ccc4OC)cs3)cc2)cc1,5.82%
6,CCN(CC)CCCN(C(=O)Cn1nnc(-c2ccc(OC)c(OC)c2)n1)C(C(=O)NC(C)(C)C)c1ccc(F)cc1 (stereo not drawn),-74.5%
7,COc1c(Cl)cnn(-c2cccc(C)c2)c1=O,17.7%
8,COc1ccc(OC)c(NC(=O)c2[nH]c(C)c(C(C)=O)c2C)c1,8.38%
9,Cc1cccc(NC(=O)N2CCN(Cc3ccc(Cl)cc3)CC2)c1,-50.7%
10,O=C(Nc1cccc(S(=O)(=O)NC2=NCCC2)c1)C1CCCCC1,15%
11,COc1ccc(OC)c(C2=NOC(C(=O)Nc3ccccc3SC)C2)c1 (stereo not drawn),-3.41%
12,CCCC(C(=O)NCCC(C)C)N(Cc1ccc(OC)cc1)C(=O)c1snc(C(N)=O)c1N (stereo not drawn),-16.7%
13,CCCc1nn2c(=O)cc(CSCC(=O)Nc3ccc(OC)cc3)nc2s1,0.945%
14,Cc1cccc(N2CCN(C(=O)CCN3C(=O)C4C5C=CC(C5)C4C3=O)CC2C)c1 (stereo not drawn),-18.2%
15,CCCN(C(=O)C1CC(=O)N(c2ccccc2C(C)CC)C1)C1CCS(=O)(=O)C1 (stereo not drawn),-2.13%
16,O=C(c1ccccn1)N1N=C2/C(=C/c3ccc(F)cc3)CCCC2C1c1ccc(F)cc1 (stereo not drawn),-54.3%
17,COCCNS(=O)(=O)c1ccc(-c2ccc(S(=O)(=O)NCCOC)cc2)cc1,-17.4%
18,CCCOc1ccc(C(NC(=O)CC(C)C)NC(=O)CC(C)C)cc1OC,9.86%
19,Cc1cccc(C)c1NC(=O)CN(C)C(=O)CCC(=O)c1ccccc1,-7.93%
20,COc1ccccc1/C=C/c1onc(C)c1S(=O)(=O)N1CCC(C(=O)NC2CCCCCC2)CC1,12.5%
21,O=C(Nc1ccc(Cl)c([N+](=O)[O-])c1)c1ccc2c(c1)OCCO2,7.9%

row,SMILES,"hERG current change (%, negative = inhibition) at 10uM"
1,COc1ccc2c(c1)c(CC(=O)Nc1cc(C)ccc1C)c(C)n2C(=O)c1ccc(Cl)cc1,4.86%
2,O=C(O)c1ccccc1SCC(=O)N1c2ccccc2Sc2ccccc21,10.9%
3,CN(C(=O)c1cccc(N2C(=O)C3CC=CCC3C2=O)c1)C1CCCCC1 (stereo not drawn),-4.95%
4,Cc1ccc(C(=O)NCc2ccc(Cl)cc2)o1,-20.2%
5,[Br-].c1sc2[n+](c1C13CC4CC(CC(C4)C1)C3)CCS2,17.7%
6,COc1cccc(C(=O)Nc2ccc3ccccc3c2)c1,0.35%
7,COc1ccc(N(CC(=O)NCc2ccc(C)cc2)S(=O)(=O)c2c(C)noc2C)cc1,12.1%
8,COc1ccccc1C(=O)N/C(=C/c1ccc2c(c1)OCO2)C(=O)Nc1ccc(C(=O)O)cc1,-2.88%
9,Cc1cc(C)n2nc(-c3ccc(F)cc3)nc2n1,-2.95%
10,CNC(=S)N/N=C/c1cn(CCOc2ccc(OC)cc2)c2ccccc12,-3.06%
11,O=C(O)CCC(=O)N1N=C(c2ccco2)CC1c1cccs1 (stereo not drawn),24.5%
12,Cc1ccc(OCC(=O)N2N=C(c3ccncc3)CC2(O)C(F)(F)F)cc1C (stereo not drawn),14.4%
13,Nc1c2nc(-c3ccccc3Cl)[nH]c(=O)c2nc(=O)n1-c1ccccc1,-26.7%
14,CCN(CC)C(=O)c1ccc(NC(=O)CNC(C)c2cccc3ccccc23)cc1 (stereo not drawn),8.74%
15,COc1ccccc1N1CCN(CC(=O)c2c[nH]c3ccccc23)CC1,-44.7%
16,COc1ccc(CCN(C)C2CCCN(C(=O)CCC(F)(F)F)C2)cc1OC (stereo not drawn),-52%
17,CN(C)c1ccc(NC(=O)C2C3C=CC(C3)C2C(=O)O)cc1 (stereo not drawn),7.65%
18,O=C(CCN1c2ccccc2Sc2ccccc21)Nc1ccccc1,-3.4%
19,CC(=O)Nc1ccc(NC(C)=O)s1,0.0366%
20,Cc1occc1C(=O)NNC(=S)NC(=O)COc1ccc(Cl)cc1Cl,28.8%
21,O=C(COc1ccccc1[N+](=O)[O-])OCCCOC(=O)COc1ccccc1[N+](=O)[O-],12.4%
